PubChem BioAssay AID624296 (National Center for Advancing Translational Sciences (NCATS), 2012)
Out of some 350,000 compounds screened, about 9,900 (2.8%) were called active. This list was built around the results that the source calls inconclusive (neither active nor inactive); the mix of calls is not that of the screen. Calls come from the whole dose curve; as a rule, active = well fitted activation curve with a large enough effect; inconclusive = small, poorly fitted or top-dose-only effect; inactive = no such curve, though single readings can be large or run the other way. Potencies of inconclusive entries are left out as doubtful fits.

Assay: A quantitative high throughput screen for small molecules that induce DNA re-replication in MCF 10a normal breast cells. For activity, positive = re-replication: % of control where 0% means no effect. Note: nearly all actives have a fitted effect of over 50% in size.
Settings: MCF 10A DNA re-replication, Hoechst nuclear intensity, 48 h; activity, positive = re-replication: at 46.1 µM (top of the series)
Potency is the fitted concentration of half-maximal effect; tags give direction and shape of the fitted curve.

Structure (SMILES)	activity, positive = re-replication	Potency
O=C(CCC(=O)Nc1cccnc1)Nc1cccnc1	inactive: 1.75%	–
c1ccc(-c2nc(-n3ccnc3)nc(-n3ccnc3)n2)cc1	–	inconclusive [activator, single point]
COc1ccc(C2C(C#N)=C(N)Oc3n[nH]c(C)c32)cc1CN1CCN(c2ccc(F)cc2)CC1 (stereo not given)	–	inconclusive [activator, single point]
CCN(CC)CCN(C(=O)c1ccc(Br)s1)c1nc2cc3c(cc2s1)OCCO3	–	inconclusive [activator, single point]
O=[N+]([O-])c1ccc(N=Nc2ccc(O)c3ccccc23)cc1	–	inconclusive [activator, partial curve, poor fit]
CCn1cc(C2=NC(C)CO2)c2ccccc21 (stereo not given)	inactive: 0.599%	–
O=C(NCCc1ccc(F)cc1)C(=O)NCC1CCCN1S(=O)(=O)c1cccs1 (stereo not given)	–	inconclusive [activator, single point]
CCC(C(=O)NC1CCCC1)N(C(=O)Cn1nnc(-c2ccc(C)o2)n1)c1ccccc1OC (stereo not given)	inactive: -3.48%	–
CCN1CCN(S(=O)(=O)c2ccc(Cl)c(C(=O)Nc3ccccc3N3CCCC3)c2)CC1	–	inconclusive [activator, full curve, poor fit]
CS(=O)(=O)c1ccc(C(=O)OCC(=O)NC(=O)C2COc3ccccc3O2)cc1[N+](=O)[O-] (stereo not given)	–	inconclusive [activator, single point]
CCO[C@H]1OC(C(=O)N2CCN(Cc3ccc4c(c3)OCO4)CC2)=C[C@@H](C2CC2)[C@@H]1CCCO	–	inconclusive [activator, partial curve, poor fit]
O=C(Nc1ccc(F)cc1)C(Sc1nc2ccccc2[nH]1)c1ccccc1 (stereo not given)	–	active: 11.6 µM
CN(c1ccccc1)S(=O)(=O)c1cccc(C(=O)NC2CCCCC2)c1	–	inconclusive [activator, partial curve, poor fit]
COc1ccc(NC(=O)C#Cc2ccccc2)cc1	–	inconclusive [activator, partial curve, poor fit]
CCN(CC)S(=O)(=O)c1cc(NC(=O)CSc2nc3c(cc2C#N)C(=O)CC(C)(C)C3)ccc1C	–	inconclusive [activator, partial curve]
C=CCn1c(NC(=O)c2ccccc2Cl)c(C#N)c2nc3ccccc3nc21	–	active: 16.4 µM
Cc1ccnc(NC(=O)COc2ccc3c(c2)CCC3)c1	–	inconclusive [activator, single point]
Cc1cccc(-c2nnc(SCc3nc4ccccc4[nH]3)n2Cc2ccco2)c1	–	inconclusive [activator, partial curve, poor fit]
CCCn1c(C)nc2cc(Cl)c(N3CCN(c4nc(-c5ccc(C)cc5)cs4)CC3)cc21	–	inconclusive [activator, single point]
CCOC(=O)c1c(NC(=O)CSc2nc3ccccc3[nH]2)sc2c1CC(C)(C)NC2(C)C	–	inconclusive [activator, single point]
CCOc1cccc(N(C(=O)C2COc3ccccc3O2)C(C(=O)NC2CCCCC2)c2ccc(O)cc2)c1 (stereo not given)	–	inconclusive [activator, single point]
CC(C)n1c(=S)[nH]c2ccccc2c1=O	inactive: 13.1%	–
O=[N+]([O-])c1ccc(C(O)CN=Cc2ccc(O)cc2O)cc1 (stereo not given)	–	active: 16.4 µM

Structure (SMILES)	activity, positive = re-replication	Potency
Clc1nnc(NN=C2CCCC2)c2ccccc12	–	inconclusive [activator, single point]
N/C(=N\OC(=O)Cc1ccc(-c2ccccc2)cc1)c1cccc([N+](=O)[O-])c1	–	inconclusive [activator, partial curve, poor fit]
CCOC(=O)N(C)OC(=O)Nc1ccc(Cl)c(Cl)c1	–	inconclusive [activator, single point]
Cc1cc(NC(=O)CSc2nc(-c3cccs3)cc(C(F)(F)F)n2)no1	inactive: -5.59%	–
COc1ccc(-c2sc3cc4c(cc3c2C#Cc2cncn2C)OCO4)cc1	inactive: -0.712%	–
CC(C)C(NS(=O)(=O)c1cccc2nsnc12)C(=O)N1CCCCC1 (stereo not given)	inactive: -0.39%	–
CCc1ccc(NC(=O)C2CCN(S(=O)(=O)c3cccs3)CC2)cc1	–	inconclusive [activator, single point]
O=C1C2C3C=CC(C3)C2C(=O)N1c1ccc(Cc2ccncc2)cc1 (stereo not given)	inactive: 17.4%	–
Cc1cc(C)c2c(N)c(C(=O)Nc3ccccc3Br)sc2n1	–	active: 5.8 µM
Oc1c(C(c2cccs2)N2CCN(c3cccc(Cl)c3)CC2)sc2ncnn12 (stereo not given)	inactive: 1.79%	–
COc1ccc(C(C(=O)NCC2CCCO2)N(Cc2cccs2)C(=O)c2snc(C(N)=O)c2N)cc1OC (stereo not given)	inactive: -0.379%	–
Cc1ccc(-c2nc3ccccc3c(=O)n2NC(=O)c2cccs2)cc1	inactive: -5.78%	–
CCOC(=O)N1CCC(N2C(=O)c3ccccc3C2Nc2cc(C)cc(C)c2)CC1 (stereo not given)	inactive: -3.27%	–
Cc1ccc(NS(=O)(=O)c2c(C)ccc3nsnc23)c([N+](=O)[O-])c1	inactive: 7.63%	–
CCOC(=O)Cc1nc(-c2ccccc2)n[nH]1	inactive: 1.69%	–
COc1ccc(/C=N/NC(=O)c2cc(C34CC5CC(CC(C5)C3)C4)[nH]n2)cc1O	–	inconclusive [activator, full curve, poor fit]
Cc1cccc(N=Nc2c(O)[nH]c3ccc(Br)cc23)c1	–	inconclusive [activator, partial curve, poor fit]
Cc1cc(C)c(S(=O)(=O)N(C)c2ccccc2)c(C)c1	–	inconclusive [activator, full curve, poor fit]
CCOC(=O)c1nc(Nc2ccc(OC)cc2)c2ccccc2n1	inactive: -1.34%	–
CSc1nnc(N2C(=O)C(O)=C(C(=O)c3ccco3)C2c2cccc(Cl)c2)s1 (stereo not given)	inactive: -2.18%	–
COc1ccc(NC2=C(NCCO)C(=O)c3ccccc3C2=O)cc1	–	inconclusive [activator, partial curve, poor fit]
O=C1C[C@@H]2c3c(cccc3CN1Cc1ccccc1Br)C[C@@H](O)[C@H]2O	–	inconclusive [activator, single point]
